Reference: PubChem BioAssay AID463173 (ICCB-Longwood Screening Facility, Harvard Medical School, 2010)
The campaign covered roughly 52,000 compounds. About 1,700 (3.3%) were called active. No stated cut-off is given here; in the data, active means survival mostly below about 52% (no sharp cut-off); inactive means mostly above about 56%. The list shows a part of the results.

system: Wild type; experiment: growth inhibition of S. aureus wild type versus tarO mutant, primary screen, teichoic acid synthesis inhibitors, RN4220, OD600 (AID 463173); conditions: S. aureus RN4220 wild type/DeltatarO growth, OD600, 18 h, stronger effect = lower value, screened at 18.75 µg/mL (by protocol)

| SMILES | survival |
| --- | --- |
| CC(C)Oc1ccc(CNC(=O)c2cnc3sc(N4CCCCC4)nn3c2=O)cc1 | inactive: 135% |
| CCc1ccccc1NC(=O)C1COc2ccccc2C1 (configuration not stated) | inactive: 83% |
| Cn1cnc(S(=O)(=O)N2CCC(C(=O)N3CCN(c4ccc(Cl)cc4)CC3)CC2)c1 | inactive: 32% |
| O=C(Cc1cccs1)NC1CCN(Cc2ccccc2)CC1 | inactive: 97% |
| CC(=O)Nc1ccc(-n2c(CCC(=O)O)ccc2-c2ccc(C)cc2)cc1 | inactive: 81% |
| CCOC(=O)c1oc2ccc(S(=O)(=O)n3nc(-c4cc(OC)cc(OC)c4)cc3N)cc2c1C | inactive: 125% |
| CCc1ccc(Sc2cc(C(=O)NCCCOC(C)C)c3ccccc3n2)cc1 | inactive: 71% |
| Cc1cc(C)cc(OCC(=O)Nc2ccc(Cl)c(-c3nc4ncccc4o3)c2)c1 | inactive: 33% |
| N#Cc1ccc(OC(=O)c2cc(-c3ccc4c(c3)OCCO4)on2)cc1 | inactive: 117% |
| CCCOC(=O)c1cc(=O)[nH]c2ccccc12 | inactive: 108% |
| CCCn1c(=O)c2sccc2n2c(CCCC(=O)N3CCN(c4cccc(C)c4C)CC3)nnc12 | inactive: 88% |
| Cc1ccc(NC(=O)CSc2nc3c(oc4ccccc43)c(=O)n2Cc2ccco2)cc1 | inactive: 78% |
| Cc1cc(C)cc(-n2ccnc2SCC(=O)Nc2ccc3c(c2)OCO3)c1 | inactive: 91% |
| CN(C(=O)Nc1ccccc1)C12CC3CC(CC(C3)C1)C2 | inactive: 111% |
| CC(=O)N(Cc1cccnc1)c1nc2c(C)cccc2s1 | inactive: 73% |
| Cn1cc(-c2cc3n(n2)CCC(=O)N3CCCC(=O)Nc2ccc(F)cc2F)c2ccccc21 | inactive: 121% |
| COc1cc(C(c2nnnn2C2CCCCC2)N2CCc3ccccc3C2)ccc1O (configuration not stated) | inactive: 103% |
| COc1ccc(CCn2c(=O)c3cccnc3n(CC(=O)Nc3cccc(C)c3)c2=O)cc1OC | inactive: 92% |
| CCOC(=O)C1CCN(C(=O)Cn2nc(C)n3c(cc4cc(C)ccc43)c2=O)CC1 | inactive: 79% |
| COc1ccc(S(=O)(=O)NCc2ccc3c(c2)CCN3C(=O)c2ccc(C)cc2)cc1Cl | inactive: 121% |
| Cc1cc2nc(-c3ccc(Br)cc3)cc(C(F)(F)F)n2n1 | inactive: 77% |
| Cc1nc2c(C(=O)NCCc3ccc(Cl)cc3)c[nH]n2c(=O)c1Cc1ccccc1F | active: -11% |

| SMILES | survival |
| --- | --- |
| CCc1ccc(-c2cn3c(n2)sc2cc(C(=O)NCC(C)c4ccccc4)ccc23)cc1 (configuration not stated) | inactive: 80% |
| Cc1ccc2nc(NS(=O)(=O)c3ccc(Cl)cc3)c(Nc3ccc(C(=O)O)cc3)nc2c1 | inactive: 106% |
| Cc1nnc2c(N3CCN(c4ccccc4)CC3)nc3ccc(C(=O)c4ccccc4)cc3n12 | inactive: 81% |
| CCOC(=O)C1CCCN(S(=O)(=O)c2ccc(Cl)cc2)C1 (configuration not stated) | inactive: 113% |
| CCc1ccc(N2CCn3c2nc2c3c(=O)n(Cc3c(F)cccc3Cl)c(=O)n2C)cc1 | inactive: 87% |
| CCc1ccc(NS(=O)(=O)c2ccc(C(=O)N(C)C)s2)cc1 | inactive: 64% |
| O=C(C1CC1)N1CCc2cc(Br)cc(S(=O)(=O)N3CCN(c4ccccc4)CC3)c21 | inactive: 76% |
| Cn1c(=O)c2sccc2n2c(CCC(=O)N3CCN(c4cccc(Cl)c4)CC3)nnc12 | inactive: 151% |
| CCCCC(=O)Nc1nnc(S(=O)(=O)N(CC)c2cc(C)cc(C)c2)s1 | inactive: 89% |
| CCCCOC(=O)c1ccc(Nc2nc3ccccc3c3nnc(C)n23)cc1 | inactive: 19% |
| Cc1c(CNCCc2ccc(S(N)(=O)=O)cc2)c(C(=O)O)c(C)n1Cc1ccc(Cl)cc1 | inactive: 93% |
| CCOc1ccc(/C=C(\C#N)C(=O)Nc2sc3c(c2C(=O)OC)C(C(=O)OC)CC3)cc1OC (configuration not stated) | inactive: 84% |
| CC(=NCc1cccnc1)c1c(C)[nH]n(-c2nc3ccccc3s2)c1=O | inactive: 102% |
| CCC(C)NC(=O)C1CCN(c2ncccn2)CC1 (configuration not stated) | inactive: 105% |
| CN(C(=O)CSc1nc2ccccc2n1CC(=O)N(C)c1ccc(F)cc1)c1ccccc1 | inactive: 67% |
| CCc1ccccc1NC(=O)Cn1nnc(C(=O)NCc2cccs2)c1N | inactive: 96% |
| COc1cc(NC(=O)c2cc(-c3ccc(Cl)c(Cl)c3)on2)cc(OC)c1OC | inactive: 127% |
| COc1ccc(CNCCSc2nnnn2-c2ccccc2)c(OC)c1 | inactive: 84% |
| COc1ccc(N2CCN(C(=O)C3CCN(S(=O)(=O)Cc4ccccc4)CC3)CC2)cc1 | inactive: 83% |
| O=C(CSc1nccn1Cc1ccc(F)cc1)Nc1ccc2c(c1)OCO2 | inactive: 126% |
| Cc1ccc(CNC(=O)CN2C(=O)C3(SCC(=O)N3c3cc(C)cc(C)c3)c3ccccc32)cc1 (configuration not stated) | inactive: 65% |
| CCOc1ccc(Nc2oc(-c3ccc(COc4ccccc4C)o3)nc2C#N)cc1 | inactive: 92% |

| SMILES | survival |
| --- | --- |
| Cc1nc(-c2cccc(F)c2)sc1CCNC(=O)c1ccc(F)c(F)c1 | inactive: 73% |
| CCN(c1ccccc1)S(=O)(=O)c1ccc(F)c(C(=O)Nc2ccc(C)cc2)c1 | inactive: 143% |
| Cc1ccc(Nc2nnc(-c3ccc(C)c(S(=O)(=O)N4CCCCC4)c3)c3ccccc23)cc1 | inactive: 107% |
| Cc1ccc(CCNC(=O)CN2C(=O)COc3ccc(S(=O)(=O)N4CCCCC4)cc32)cc1 | inactive: 87% |
| Cc1ccc(C(CC(=O)NCC2(c3ccccc3)CCCC2)c2ccccc2)c(O)c1 (configuration not stated) | inactive: 36% |
| CCOc1ccc2c(c1)[C@@H]1C=CC[C@@H]1[C@H](c1ccccc1Cl)N2 | active: 0% |
| CC(C)(C)OC(=O)N1CCC(c2c(C(=O)Nc3ccc4c(c3)OCCO4)cnn2-c2ccc(F)cc2)CC1 | inactive: 69% |
| Cc1ccc(CNC(C)c2ccccc2)s1 (configuration not stated) | inactive: 68% |
| COc1ccc(C2C(=O)N(C3CCCCCC3)CC(=O)N2CCc2ccccc2)cc1 (configuration not stated) | inactive: 133% |
| Cc1cccc(-c2nc3c(cnn3-c3ccccc3)c(=O)n2-c2cccc(Cl)c2)c1 | inactive: 70% |
| O=C(NCCc1ccccc1)c1ccc2c(c1)N(Cc1ccccc1)C(=O)c1ccccc1S2=O (configuration not stated) | inactive: 86% |
| CCN(CC)S(=O)(=O)c1ccc2c(c1)c(=O)c(C(=O)N(C)Cc1ccccc1)cn2C | inactive: 78% |
| CN(C)c1ccc(CNC(=O)c2cc3ccccn3n2)cc1 | inactive: 66% |
| Cc1cc(C)cc(NC(=O)CSc2nnc(COc3ccccc3Cl)o2)c1 | inactive: 50% |
| Cc1ccc(C)c(NC(=O)CCCN2C(=O)COc3ccc(C)cc32)c1 | inactive: 110% |
| CC(C)(C)OC(=O)N1CCC(c2c(C(=O)Nc3cccc(C(F)(F)F)c3)cnn2-c2ccc(F)cc2F)CC1 | inactive: 55% |
| Cn1cnc2c(=O)oc3ccc(S(=O)(=O)N4CCN(c5ccccc5)CC4)cc3c21 | inactive: 87% |
| CC1CCN(S(=O)(=O)c2ccc3ncn(CC(=O)Nc4ccccc4C(F)(F)F)c(=O)c3c2)CC1 | inactive: 74% |
| Cc1nn(-c2ccccc2)c(-n2cccc2)c1C(=O)NCc1ccccc1Cl | active: 1% |
| COc1ccc(C)cc1NC(=O)c1cc2c(s1)-c1ccccc1SC2 | inactive: 46% |
| CCOC(=O)CC(NC(=O)Cn1nnc(-c2ccc(C(F)(F)F)cc2)n1)c1ccccc1Cl (configuration not stated) | inactive: 93% |
| CC(=O)Nc1cc(C(=O)NCc2ccc(F)cc2)ccc1Sc1ccc(C)cc1 | inactive: 69% |

| SMILES | survival |
| --- | --- |
| CCOC(=O)C1CCN(C(=O)CSc2n[nH]c(-c3ccccc3Cl)n2)CC1 | inactive: 98% |
| CN(C)c1ccc(C(CNC(=O)Cc2ccc(Cl)cc2)N2CCOCC2)cc1 (configuration not stated) | inactive: 45% |
| Cc1cc(OCC(=O)Nc2cnn(CCCC(=O)O)c2)ccc1Cl | inactive: 85% |
| O=C1CN(C(=O)c2ccc(Cl)cc2Cl)C(c2ccc(F)cc2)c2cc(F)ccc2N1 (configuration not stated) | inactive: 74% |
| O=C(NCc1cccs1)c1nn(-c2ccccc2)nc1CO | inactive: 89% |
| CCCn1c2ccccc2c2cnn(CC(=O)Nc3cccc(C(=O)OCC)c3)c(=O)c21 | inactive: 80% |
| CCOc1ccc(CNC(=O)CN2C(=O)CCn3nc(-c4cn(C)c5ccccc45)cc32)cc1OC | active: -6% |
| Cc1ccc(S(=O)(=O)c2nc(-c3ccco3)oc2SC(C)C)cc1 | inactive: 49% |
| COc1ccc(CCNC(=O)Cc2c(C)c3c(cc(C)c4c(C)c(C)oc43)oc2=O)cc1OC | inactive: 87% |
| Cc1ccc(NC(=O)Cn2c(=O)n(-c3ccc(C)cc3)c(=O)c3ccc(C(=O)NCc4ccccc4Cl)cc32)cc1 | inactive: 59% |
| Cc1ccc(NC(=O)CN2Cc3ccccc3C2=O)c(C)c1 | inactive: 72% |
| COc1ccc(NC(=O)c2cc(-c3ccc4c(c3)OCO4)on2)c(OC)c1 | inactive: 75% |
| CCOC(=O)c1cccc(NC(=O)CCS(=O)(=O)c2ccc(Br)s2)c1 | inactive: 88% |
| CC(=O)Nc1nonc1-c1nnc(SCc2ccc(F)cc2Cl)n1C | inactive: 84% |
| Cc1cc(C)cc(NC(=O)c2sc3nc(-c4ccccc4)cn3c2C)c1 | inactive: 135% |
| COc1cccc(C2C(C(=O)Nc3ccc(Cl)cc3)=C(C)Nc3c(C(=O)Nc4ccccc4)cnn32)c1OC (configuration not stated) | inactive: 93% |
| O=C(CN(Cc1ccccc1F)C(=O)c1ccco1)NCc1ccc(F)cc1 | inactive: 103% |
| CC1(C(=O)NC2CCCCC2)Cc2ccccc2C(=O)N1Cc1ccc(Cl)cc1 (configuration not stated) | inactive: 89% |
| COc1ccc(/C=C/C(=O)Nc2ccc3nc(N4CCC(C)CC4)cc(C)c3c2)cc1OC | inactive: 74% |
| Cc1c(C)n(Cc2ccc(F)cc2)c2ccc(C(=O)N3CCN(c4ccc(Cl)cc4)CC3)cc12 | inactive: 72% |
| Cn1c(=O)c2c(nc(SCC(=O)Nc3ccc(F)cc3F)n2Cc2ccccc2)n(C)c1=O | inactive: 108% |
